From PMC4133157
Results are given in words; binding and its absence hold for the method and conditions named. In cells and extracts the contact can be indirect. Sequences can lack the tags named with a protein.

Tests used:
[1] = molecular target: T1, 3XFLAG::PAT-2 (HEK293T) (C. elegans) (UniProt P34446); assay: co-IP; FLAG-tagged receptor on transfected HEK293T cells incubated with 10x concentrated conditioned medium holding the HA- and Gaussia luciferase-tagged ligand, 4 hours at 4°C; cells lysed in TNTE buffer (0.5% Triton X-100), anti-FLAG immunoprecipitation, luciferase activity of the washed immunoprecipitate, normalised to receptor level
T1 sequence: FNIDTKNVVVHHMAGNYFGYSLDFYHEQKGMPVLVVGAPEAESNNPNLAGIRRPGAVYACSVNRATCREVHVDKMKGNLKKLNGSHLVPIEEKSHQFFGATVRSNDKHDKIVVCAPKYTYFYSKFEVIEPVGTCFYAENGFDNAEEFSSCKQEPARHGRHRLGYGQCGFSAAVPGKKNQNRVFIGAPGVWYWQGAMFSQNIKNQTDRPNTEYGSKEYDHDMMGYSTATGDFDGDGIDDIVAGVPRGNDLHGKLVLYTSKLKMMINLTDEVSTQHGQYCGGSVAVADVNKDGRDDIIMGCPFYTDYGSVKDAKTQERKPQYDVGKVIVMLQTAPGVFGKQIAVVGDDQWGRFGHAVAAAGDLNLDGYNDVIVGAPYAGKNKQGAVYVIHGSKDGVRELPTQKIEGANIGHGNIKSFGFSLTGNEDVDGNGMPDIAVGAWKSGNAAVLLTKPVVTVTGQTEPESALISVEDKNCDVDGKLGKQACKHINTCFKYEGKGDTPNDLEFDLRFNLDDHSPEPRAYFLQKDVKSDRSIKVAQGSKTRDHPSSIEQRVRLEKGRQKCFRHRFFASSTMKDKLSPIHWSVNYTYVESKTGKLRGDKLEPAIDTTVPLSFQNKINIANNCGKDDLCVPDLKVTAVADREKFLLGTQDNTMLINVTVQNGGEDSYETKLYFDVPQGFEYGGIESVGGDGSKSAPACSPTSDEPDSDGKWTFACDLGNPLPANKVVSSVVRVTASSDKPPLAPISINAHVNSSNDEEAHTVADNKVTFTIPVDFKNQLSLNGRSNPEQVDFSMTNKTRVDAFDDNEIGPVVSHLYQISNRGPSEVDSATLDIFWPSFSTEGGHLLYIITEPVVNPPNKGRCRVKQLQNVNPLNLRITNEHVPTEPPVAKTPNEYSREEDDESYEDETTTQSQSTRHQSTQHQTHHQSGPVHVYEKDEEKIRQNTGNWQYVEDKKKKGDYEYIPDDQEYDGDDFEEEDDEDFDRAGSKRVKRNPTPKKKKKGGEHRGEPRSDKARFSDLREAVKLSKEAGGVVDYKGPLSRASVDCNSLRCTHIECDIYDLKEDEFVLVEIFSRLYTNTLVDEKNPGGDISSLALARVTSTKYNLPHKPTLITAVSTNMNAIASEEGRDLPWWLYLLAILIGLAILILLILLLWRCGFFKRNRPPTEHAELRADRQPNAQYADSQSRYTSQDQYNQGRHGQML

[2] = molecular target: T2, 3XFLAG::UNC-40 (HEK293T) (C. elegans) (UniProt G5EF96); assay: as above
T2 sequence: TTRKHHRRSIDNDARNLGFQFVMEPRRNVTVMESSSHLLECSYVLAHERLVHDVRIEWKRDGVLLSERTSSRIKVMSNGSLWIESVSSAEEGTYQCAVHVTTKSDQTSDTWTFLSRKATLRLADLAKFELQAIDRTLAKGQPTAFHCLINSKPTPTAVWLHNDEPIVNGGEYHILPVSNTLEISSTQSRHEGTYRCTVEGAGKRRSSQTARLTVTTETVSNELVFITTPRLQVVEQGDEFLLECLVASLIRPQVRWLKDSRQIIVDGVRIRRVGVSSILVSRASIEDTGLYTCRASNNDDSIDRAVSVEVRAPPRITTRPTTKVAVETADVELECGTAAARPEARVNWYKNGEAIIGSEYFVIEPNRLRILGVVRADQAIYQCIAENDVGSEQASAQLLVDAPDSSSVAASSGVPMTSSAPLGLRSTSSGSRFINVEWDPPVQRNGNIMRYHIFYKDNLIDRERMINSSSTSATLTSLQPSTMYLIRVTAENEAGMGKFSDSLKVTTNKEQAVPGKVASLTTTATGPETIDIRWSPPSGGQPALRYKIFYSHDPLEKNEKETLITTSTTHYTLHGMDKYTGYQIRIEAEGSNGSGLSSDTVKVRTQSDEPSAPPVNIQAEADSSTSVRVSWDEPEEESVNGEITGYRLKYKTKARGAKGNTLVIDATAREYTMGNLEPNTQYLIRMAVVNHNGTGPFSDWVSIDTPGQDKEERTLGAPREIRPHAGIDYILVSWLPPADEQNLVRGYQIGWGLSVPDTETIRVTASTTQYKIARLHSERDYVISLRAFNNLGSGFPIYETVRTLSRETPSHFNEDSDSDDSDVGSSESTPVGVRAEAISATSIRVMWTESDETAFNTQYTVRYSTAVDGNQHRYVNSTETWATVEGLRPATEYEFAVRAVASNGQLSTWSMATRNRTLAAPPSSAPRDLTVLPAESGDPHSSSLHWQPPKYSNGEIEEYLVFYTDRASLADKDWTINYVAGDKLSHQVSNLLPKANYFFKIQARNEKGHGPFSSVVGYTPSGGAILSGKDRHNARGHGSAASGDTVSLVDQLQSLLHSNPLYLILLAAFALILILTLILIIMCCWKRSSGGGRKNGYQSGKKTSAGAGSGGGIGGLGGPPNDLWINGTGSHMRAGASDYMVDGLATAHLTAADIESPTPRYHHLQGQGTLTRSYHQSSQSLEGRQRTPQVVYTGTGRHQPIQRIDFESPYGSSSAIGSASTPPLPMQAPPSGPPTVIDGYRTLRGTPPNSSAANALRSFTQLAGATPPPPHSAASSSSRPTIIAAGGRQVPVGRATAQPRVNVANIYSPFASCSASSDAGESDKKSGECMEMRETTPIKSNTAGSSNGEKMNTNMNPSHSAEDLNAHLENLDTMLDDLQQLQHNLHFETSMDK

B1: HA::SLT-1::Gaussia luciferase (ligand, UniProt G5EFX6 17-1410)
chain: CPAECVCVDRTVSCVGQQLTEVPQNIPNDTIRLDLQDNEITKIGPNDFSSLMNLKALQLMDNQIVTIHNQSFSSLVFLQKLRLSRNRIRHLPDNVFQNNLKLTHLDLSENDITVVSDAQLQGPEFLEVLNLDKNHIFCLENNVISSWVSLEVLTLNGNRLTTFEEPSNARFRQLDLFNNPWNCDCRLRWMRKWLEKAEGQNKTVCATPLNLQGSSIEILQDKFMTCSGNRKRRYKKTCETAEICPLPCTCTGTTVDCRDSGLTYVPTNLPPSTTEIRLEQNQISSIPSHSFKNLKNLTRLDLSKNIITEIQPKAFLGLHNLHTLVLYGNNITDLKSDTFEGLGSLQLLLLNANQLTCIRRGTFDHVPKLSMLSLYDNDIKSISEVTFQNLTSLSTLHLAKNPLICDCNLQWLAQINLQKNIETSGARCEQPKRLRKKKFATLPPNKFKCKGSESFVSMYADSCFIDSICPTQCDCYGTTVDCNKRGLNTIPTSIPRFATQLLLSGNNISTVDLNSNIHVLENLEVLDLSNNHITFINDKSFEKLSKLRELRLNDNKLHHFSSMVLDEQSNLEILDLSGNNIQCFSSIFFNKATRIREIKVIGNDLLCDCRILPLMSWLRSNSSHSIDIPPCQQFQYSDNESDKQRCAAFPEETCSDDSNLCPPKCSCLDRVVRCSNKNLTSFPSRIPFDTTELYLDANYINEIPAHDLNRLYSLTKLDLSHNRLISLENNTFSNLTRLSTLIISYNKLRCLQPLAFNGLNALRILSLHGNDISFLPQSAFSNLTSITHIAVGSNSLYCDCNMAWFSKWIKSKFIEAGIARCEYPNTVSNQLLLTAQPYQFTCDSKVPTKLATKCDLCLNSPCKNNAICETTSSRKYTCNCTPGFYGVHCENQIDACYGSPCLNNATCKVAQAGRFNCYCNKGFEGDYCEKNIDDCVNSKCENGGKCVDLINSYRCDCPMEYEGKHCEDKLEYCTKKLNPCENNGKCIPINGSYSCMCSPGFTGNNCETNIDDCKNVECQNGGSCVDGILSYDCLCRPGYAGQYCEIPPMMDMEYQKTDACQQSACGQGECVASQNSSDFTCKCHEGFSGPSCDRQMSVGFKNPGAYLALDPLASDGTITMTLRTTSKIGILLYYGDDHFVSAELYDGRVKLVYYIGNFPASHMYSSVKVNDGLPHRISIRTSERKCFLQIDKNPVQIVENSGKSDQLITKGKEMLYIGGLPIEKSQDAKRRFHVKNSESLKGCISSITINEVPINLQQALENVNTEQSCSATVNFCAGIDCGNGKCTNNALSPKGYMCQCDSHFSGEHCDEKRIKCDKQKFRRHHIENECRSVDRIKIAECNGYCGGEQNCCTAVKKKQRKVKMICKNGTTKISTVHIIRQCQCEPTKSVLSEK
binding [1]: no binding
binding [2]: no binding
